Measurements: PMC6919601, “Identification of Plasmodium dipeptidyl aminopeptidase allosteric inhibitors by high throughput screening” (PLoS ONE, 2019)
Among all 110,000 compounds or so, about 230 (0.21%) showed an effect of 50% or more. This is one part of the list.

These molecules were tested against DPAP1 (Plasmodium falciparum, UniProt Q8IIJ9) (assay: primary screen, percent inhibition; read by cleavage of a fluorogenic dipeptide substrate; higher = more effect of the substance).
Parameters: species or system P. falciparum D10 trophozoite lysates; single well
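Also: 30 min substrate incubation versus DMSO and 10 µM JCP410 controls.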

Sequence of DPAP1 (Q8IIJ9 whole entry, looked up): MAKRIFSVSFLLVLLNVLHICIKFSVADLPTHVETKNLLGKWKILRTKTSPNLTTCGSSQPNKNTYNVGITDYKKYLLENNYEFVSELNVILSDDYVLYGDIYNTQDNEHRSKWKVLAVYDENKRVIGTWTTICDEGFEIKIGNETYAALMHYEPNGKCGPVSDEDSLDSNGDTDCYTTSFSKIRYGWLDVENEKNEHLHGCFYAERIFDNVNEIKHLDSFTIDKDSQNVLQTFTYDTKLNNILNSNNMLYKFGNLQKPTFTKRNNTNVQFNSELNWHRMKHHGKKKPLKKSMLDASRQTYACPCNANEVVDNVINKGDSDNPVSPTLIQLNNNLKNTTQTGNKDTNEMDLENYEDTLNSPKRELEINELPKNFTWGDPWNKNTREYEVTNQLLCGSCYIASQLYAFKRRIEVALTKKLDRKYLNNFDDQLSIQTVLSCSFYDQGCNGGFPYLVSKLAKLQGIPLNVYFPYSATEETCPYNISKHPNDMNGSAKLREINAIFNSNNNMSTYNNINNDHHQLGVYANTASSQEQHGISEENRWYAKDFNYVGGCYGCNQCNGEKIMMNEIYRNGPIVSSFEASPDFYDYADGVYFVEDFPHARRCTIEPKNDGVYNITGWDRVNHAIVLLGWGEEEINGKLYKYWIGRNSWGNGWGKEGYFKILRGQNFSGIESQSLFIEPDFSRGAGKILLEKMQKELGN

Structure (SMILES)	% Inhibition @ 10 uM
COc1ccc(CCNC(=O)Cn2nc(C)n3c(cc4sccc43)c2=O)c(OC)c1	6.46%
Cc1ccc(/C=C/C2=NC(=C\c3cccs3)/C(=O)O2)cc1	-1.29%
COc1ccc(C2CC(=O)N(CCCN(C)C)C2)cc1 (stereo not shown)	2.41%
CCN(CC)CCCNC(=O)Cn1ncc2c3ccccc3n(Cc3ccccc3C)c2c1=O	6.46%
c1ccc(-c2nc(CN3CCN(c4ccccc4)CC3)cs2)cc1	3.8%
CN1CCC(N(C)Cc2ccc(F)c(F)c2)CC1	-4.5%
CCCc1nc2c3ccccc3nc(-n3nc(C)cc3C)n2n1	-2.41%
C/C(=N\OCc1nc2c3cnn(Cc4ccccc4)c3ncn2n1)c1ccccc1	4.54%
COc1ccc(/C=C/C(=O)NC(=O)c2ccccc2OCC(=O)c2ccc(Br)cc2)cc1	-6.69%
CCc1c(-c2ccccc2)n(Cc2ccccn2)c2nc3c(c(=O)n(C)c(=O)n3C)n12	-2.67%
FC(F)(F)c1cccc(CSc2nc3ccncc3[nH]2)c1	3.3%
CC1CCN(C(=O)Nc2cn(C)c(=O)c3ccccc23)CC1	4.44%
Cc1cc(C)c(C(N)=O)c(Nc2ccc(F)cc2)n1	-0.736%
CCOc1cc(C)c(C(C)C)cc1S(=O)(=O)NCc1ccccn1	-5.45%
COc1cc(C2C(C#N)=C(N)Oc3[nH]nc(C(C)(C)C)c32)ccc1OC(C)C (stereo not shown)	-4.33%
CC(C)(C)c1ccc(-c2nnc3sc(COc4ccc(F)cc4)nn23)cc1	6.49%
O=C(Cn1c(=O)n(Cc2ccccc2)c(=O)c2sc3ccccc3c21)N1CCCC1	2.04%
O=C(CN1C(=O)c2ccccc2S1(=O)=O)Nc1cccc(C(F)(F)F)c1	-10.2%
Cc1cccc(NC(=O)Nc2cn(CC(C)C)c(=O)c3ccccc23)n1	-5.75%
COc1ccc(OCC(=O)N2CCN(S(=O)(=O)Cc3ccccc3)CC2)cc1	-1.26%
CCCn1cnc2cc(NC(=O)c3cccs3)ccc21	1.83%
N=c1c(C(=O)NCCc2ccccc2)cc2c(=O)n3ccccc3nc2n1C1CCCC1	5.17%

Structure (SMILES)	% Inhibition @ 10 uM
O=C(NC1CCCC1)c1cnn2c(C(F)(F)F)cc(-c3ccco3)nc12	-0.553%
CCCN(CCC)Cc1nc(O)c2c(n1)-c1ccccc1CC21CCCCC1	4.17%
Cc1ccc(Cn2c(N3CCN(CCO)CC3)nc3c2c(=O)n(C)c(=O)n3C)cc1	-1.4%
Cc1ccccc1NS(=O)(=O)c1ccc(F)cc1	3.47%
CC1CCCC(OC(=O)Nc2ccccc2)C1 (stereo not shown)	-4.52%
CC(C)(C)Nc1nc2ccccc2nc1-c1ccncc1	4.57%
CCOC(=O)c1cnc(SCc2ccccn2)nc1N	-1.78%
COC(=O)Nc1ccccc1C(=O)NCCc1ccccc1	-0.891%
C1=CCN(Cc2nc3ccccc3[nH]2)CC1	-2.75%
CC1=C(C(=O)OCC(C)C)C(c2cccc(Cl)c2)NC(=O)N1 (stereo not shown)	1.27%
Cc1cc(C(F)(F)F)nc(O)n1	-1.85%
COc1ccc(CN2C(=O)c3cccnc3C2=O)cc1S(=O)(=O)NCCc1ccc(Cl)cc1	0.533%
CCOc1ccc(CNS(=O)(=O)c2ccc3[nH]c4c(c3c2)CCCCC4)cc1	2.01%
CC1CCN(C(=O)c2cc(Cl)nc3ccccc23)CC1	-5.88%
O=C(CN1CCCC1)Nc1c2c(cc3c1CCC3)CCC2	-1.17%
COCc1cc(C)n(CC(=O)Nc2ccc(OC)cc2)c(=O)c1C#N	0.726%
CCCC(O)(CCN(C)C)c1ccc(OC)cc1 (stereo not shown)	1.2%
CCCNC(=O)CCCn1nc(C)c2c(C)n(-c3ccc(C)cc3)nc2c1=O	-10.2%
CCOC(=O)c1c(S(=O)(=O)NCCc2ccc(OC)c(OC)c2)c(C)n(C)c1C	-0.349%
CC[C@H](NC(=O)[C@@H](CS(=O)(=O)Cc1ccccc1)NC(=O)N1CCOCC1)C(=O)c1ncco1	-3.49%
O=S(=O)(c1ccc2ocnc2c1)c1ccc2ocnc2c1	-1.98%
CCOC(=O)C1CCN(c2ccccn2)CC1	-8.19%

Structure (SMILES)	% Inhibition @ 10 uM
CC1(C)CC2=Nc3nc(O)nc(O)c3C(c3ccc(O)cc3)C2=C(O)C1 (stereo not shown)	6.82%
N#Cc1cccc(Oc2ccc(-c3nc4ccccc4nc3-c3ccccc3)cc2)c1C#N	9.31%
CS(=O)(=O)N(CC(=O)N1CCc2ccccc2C1)c1cccc2ccccc12	-3.46%
COc1ccccc1OCc1nc2ccccc2n1Cc1ccccc1	-3.28%
O=C(Cc1coc2ccc3ccccc3c12)Nc1ccc(Cl)cn1	-1.11%
CCCOc1ccc(C2C(C(=O)OCC)=CN(C(C)C)C=C2C(=O)OCC)cc1	-3.23%
O=C(NCCCn1c2ccccc2c2ccccc21)NC12CC3CC(CC(C3)C1)C2	-3.34%
Cc1nn(C)c(C)c1NC(=O)CC12CC3CC(CC(C3)C1)C2	1.32%
C/C(CCC1CC(C)(C)OC1=O)=N\NC(N)=S (stereo not shown)	-3.4%
O=C(/C=C/c1ccco1)N1CCN(c2ccc(F)cc2)CC1	2.16%
Cc1ccc(NC(=O)c2ccc(Cl)cc2Cl)cc1Cl	2.22%
CS(=O)(=O)c1ccc2nc(NC(=O)CCCN3C(=O)c4cccc5cccc(c45)C3=O)sc2c1	-0.305%
NC(=O)Cn1cnc(-c2ccc(F)cc2)c1	-5.51%
CC(=O)N(C)c1ccc(NC(=O)C(C)Oc2ccc(Cl)cc2Cl)cc1 (stereo not shown)	-5.95%
Oc1nncc2c1[nH]c1ccccc12	-5.37%
COCc1cc(O)nc(SCC(=O)Nc2ccc(Cl)c(Cl)c2)n1	-2.86%
Cc1cc(NC(=O)CSc2nc3c(c(C(F)(F)F)n2)CCc2ccccc2-3)no1	-1.72%
NC(=O)C1CCN(C(=O)c2cnn3c(C(F)F)cc(-c4ccccc4)nc23)CC1	-3.69%
CCC1CCCCN1CCCNC(=O)Cn1ncc2c1-c1cc(C)ccc1OC2 (stereo not shown)	-6.07%
NC1=NN=C(c2ccccc2)CS1	6.15%
